From paper PMC11995724, “Antibiotic target discovery by integrated phenotypic and activity-based profiling of electrophilic fragments” (Cell chemical biology, 2025)
The campaign covered roughly 3,200 compounds. About 110 (3.4%) showed an effect of 50% or more. The list shows a part of the results.

These compounds were tested on T1, V. cholerae SAD30. Conditions: relative growth, OD600, LB; 25 µM; inhibitor.
T1 construct: SAD30
Parameters: species or system S. aureus MSSA476 (TSB) or V. cholerae SAD30 (LB); 384-well bacterial growth screen at 25 uM, OD600 relative to DMSO control

Row | SMILES | % of control remaining [%]
1 | COc1ccc2cc(C=C(C#N)C(=O)NCc3ccccc3)ccc2c1 [9-D07, N-benzyl-2-cyano-3-(6-methoxynaphthalen-2-yl)prop-2-enamide] | 82.4609
2 | CCn1cc(CN(C(=O)CCl)[C@H]2CC[C@H](C)CC2)cn1 [5-G16, 2-chloro-N-[(1-ethyl-1H-pyrazol-4-yl)methyl]-N-[(1r,4r)-4-methylcyclohexyl]acetamide] | 98.1822
3 | COc1ccc(Cl)cc1NC(=O)C(C)Cl (centres unmarked) [6-G16, 2-chloro-N-(5-chloro-2-methoxyphenyl)propanamide] | 89.3355
4 | CC(Cl)C(=O)N(C)C1CCN(c2ccccc2Cl)C1=O (centres unmarked) [7-C16, 2-chloro-N-[1-(2-chlorophenyl)-2-oxopyrrolidin-3-yl]-N-methylpropanamide] | 76.1275
5 | CC(Cl)C(=O)NC1CCCc2c1cnn2Cc1ccccc1 (centres unmarked) [7-G13, N-(1-benzyl-4,5,6,7-tetrahydro-1H-indazol-4-yl)-2-chloropropanamide] | 70.8409
6 | COC(=O)c1c(NC(=O)CCl)sc2c1CCC(C(C)(C)C)C2 (centres unmarked) [4-J19, methyl 6-tert-butyl-2-(2-chloroacetamido)-4,5,6,7-tetrahydro-1-benzothiophene-3-carboxylate] | 99.7196
7 | C=CC(=O)NCCc1csc(C)n1 [1-D13, N-[2-(2-methyl-1,3-thiazol-4-yl)ethyl]prop-2-enamide] | 86.9955
8 | C=CC(=O)Nc1cccc(-c2nnnn2C(C)C)c1 [1-A16, N-{3-[1-(propan-2-yl)-1H-1,2,3,4-tetrazol-5-yl]phenyl}prop-2-enamide] | 87.145
9 | CC1CCCN(C(=O)C(NC(=O)CCl)c2cnn(C)c2)C1 (centres unmarked) [6-H05, 2-chloro-N-[1-(1-methyl-1H-pyrazol-4-yl)-2-(3-methylpiperidin-1-yl)-2-oxoethyl]acetamide] | 100.559
10 | CC(Cl)C(=O)NCC1CN(c2ccc(Cl)cc2)CCO1 (centres unmarked) [6-F07, 2-chloro-N-{[4-(4-chlorophenyl)morpholin-2-yl]methyl}propanamide] | 85.0886
11 | Cc1cc(C)cc(-n2c(C)cc(C(=O)CCl)c2C)c1 [10-E04, 2-chloro-1-[1-(3,5-dimethylphenyl)-2,5-dimethyl-1H-pyrrol-3-yl]ethan-1-one] | 92.1099
12 | CC(Cl)C(=O)N(C)Cc1cc(C(C)(C)C)[nH]n1 (centres unmarked) [7-B21, N-[(5-tert-butyl-1H-pyrazol-3-yl)methyl]-2-chloro-N-methylpropanamide] | 82.3393
13 | N#CC(=Cc1ccc(O)cc1)C(=O)NCCc1c(F)cccc1F [9-I16, 2-cyano-N-[2-(2,6-difluorophenyl)ethyl]-3-(4-hydroxyphenyl)prop-2-enamide] | 83.8205
14 | O=C(CCl)N(Cc1ccccc1)c1nc2c(s1)CCCC2 [4-C17, N-benzyl-2-chloro-N-(4,5,6,7-tetrahydro-1,3-benzothiazol-2-yl)acetamide] | 73.4958
15 | Cc1nc(C(NC(=O)CCl)c2ccccc2)no1 (centres unmarked) [7-F08, 2-chloro-N-[(5-methyl-1,2,4-oxadiazol-3-yl)(phenyl)methyl]acetamide] | 81.5463
16 | CC(Cl)C(=O)NCc1cccs1 (centres unmarked) [4-P11, 2-chloro-N-[(thiophen-2-yl)methyl]propanamide] | 115.247
17 | C=CC(=O)NCCC1CCCS1(=O)=O (centres unmarked) [3-C12, N-[2-(1,1-dioxo-1lambda6-thiolan-2-yl)ethyl]prop-2-enamide] | 97.03
18 | C=CC(=O)N1CCN(Cc2ccon2)CC1 [1-N20, 1-{4-[(1,2-oxazol-3-yl)methyl]piperazin-1-yl}prop-2-en-1-one] | 108.685
19 | C=CC(=O)N1CCC(C(=O)NCC(C)(C)C=C)CC1 [2-G04, N-(2,2-dimethylbut-3-en-1-yl)-1-(prop-2-enoyl)piperidine-4-carboxamide] | 100.077
20 | COc1cc(C=C(C#N)C(=O)NC(C)C)sn1 [9-N12, 2-cyano-3-(3-methoxy-1,2-thiazol-5-yl)-N-(propan-2-yl)prop-2-enamide] | 88.1713
21 | CCOc1ccc(NC(=O)C(C#N)=Cc2ccc(F)cc2)cc1 [8-N07, 2-cyano-N-(4-ethoxyphenyl)-3-(4-fluorophenyl)prop-2-enamide] | 74.7111
22 | O=C(CCl)c1c[nH]c2ccc(F)cc12 [10-O11, 2-chloro-1-(5-fluoro-1H-indol-3-yl)ethan-1-one] | 23.3781

Row | SMILES | % of control remaining [%]
23 | C=CC(=O)NCc1ccc(C(=O)N2CCN(C(C)=O)CC2)cc1 [3-G17, N-{[4-(4-acetylpiperazine-1-carbonyl)phenyl]methyl}prop-2-enamide] | 90.8546
24 | C=CC(=O)NCc1nnnn1-c1ccc(F)cc1 [1-M22, N-{[1-(4-fluorophenyl)-1H-1,2,3,4-tetrazol-5-yl]methyl}prop-2-enamide] | 95.2167
25 | C=CC(=O)N1CCC(C(=O)N2CCC(CC(=O)N(C)C)CC2)CC1 [2-H09, N,N-dimethyl-2-{1-[1-(prop-2-enoyl)piperidine-4-carbonyl]piperidin-4-yl}acetamide] | 92.6662
26 | O=C(CCl)C1CC1(Cl)Cl (centres unmarked) [10-K09, 2-chloro-1-(2,2-dichlorocyclopropyl)ethan-1-one] | 101.617
27 | C=CC(=O)NC1CCc2ccccc21 (centres unmarked) [1-A14, N-(2,3-dihydro-1H-inden-1-yl)prop-2-enamide] | 85.9492
28 | Cc1nn(CCC(=O)N2CCSSCC2)c(C)c1[N+](=O)[O-] [10-J05, 3-(3,5-dimethyl-4-nitro-1H-pyrazol-1-yl)-1-(1,2,5-dithiazepan-5-yl)propan-1-one] | 92.1099
29 | CC(C1CC1)N(Cc1ccccc1)C(=O)CCl (centres unmarked) [5-F09, N-benzyl-2-chloro-N-(1-cyclopropylethyl)acetamide] | 97.5097
30 | CC(C)C(NC(=O)CCl)c1ccc(F)c(C#N)c1 (centres unmarked) [6-I19, 2-chloro-N-[1-(3-cyano-4-fluorophenyl)-2-methylpropyl]acetamide] | 94.189
31 | CC(Cl)C(=O)NCC1CN(c2nncs2)CCO1 (centres unmarked) [7-O03, 2-chloro-N-{[4-(1,3,4-thiadiazol-2-yl)morpholin-2-yl]methyl}propanamide] | 90.798
32 | C=CC(=O)N(C)CC(=O)NC(C)c1ncc(C)s1 (centres unmarked) [3-I14, N-methyl-N-({[1-(5-methyl-1,3-thiazol-2-yl)ethyl]carbamoyl}methyl)prop-2-enamide] | 91.3839
33 | O=C(CCl)N(Cc1cccs1)C1CCS(=O)(=O)C1 (centres unmarked) [4-L12, 2-chloro-N-(1,1-dioxo-1lambda6-thiolan-3-yl)-N-[(thiophen-2-yl)methyl]acetamide] | 108.173
34 | Cc1n[nH]c(C)c1C=C(C#N)C(=O)Nc1cc(Cl)cc(Cl)c1 [8-M08, 2-cyano-N-(3,5-dichlorophenyl)-3-(3,5-dimethyl-1H-pyrazol-4-yl)prop-2-enamide] | 68.3209
35 | Cc1cccc(Cc2cnc(NC(=O)C(C)Cl)s2)c1 (centres unmarked) [4-D19, 2-chloro-N-{5-[(3-methylphenyl)methyl]-1,3-thiazol-2-yl}propanamide] | 82.1221
36 | N#CC(=Cc1ccc(OC(F)F)cc1)C(=O)NC1CCCCC1 [9-A04, 2-cyano-N-cyclohexyl-3-[4-(difluoromethoxy)phenyl]prop-2-enamide] | 91.2984
37 | C=CC(=O)Nc1ccc(C(=O)Nc2ccc(N3CCOCC3)nc2)cc1 [1-K15, N-[6-(morpholin-4-yl)pyridin-3-yl]-4-(prop-2-enamido)benzamide] | 86.5471
38 | CC(Cl)C(=O)N1Cc2ccccc2C(n2cccn2)C1 (centres unmarked) [6-F20, 2-chloro-1-[4-(1H-pyrazol-1-yl)-1,2,3,4-tetrahydroisoquinolin-2-yl]propan-1-one] | 86.757
39 | CC(Cl)C(=O)Nc1cccc2ncccc12 (centres unmarked) [4-M10, 2-chloro-N-(quinolin-5-yl)propanamide] | 97.4768
40 | Cc1cc(C=C(C#N)C(=O)NCc2ccccc2)c(C)n1C1CC1 [8-G14, N-benzyl-2-cyano-3-(1-cyclopropyl-2,5-dimethyl-1H-pyrrol-3-yl)prop-2-enamide] | 61.3868
41 | C=CC(=O)N1CCC(C(=O)N2CCC[C@H]2c2ncn[nH]2)CC1 [2-D12, 1-{4-[(2S)-2-(1H-1,2,4-triazol-5-yl)pyrrolidine-1-carbonyl]piperidin-1-yl}prop-2-en-1-one] | 91.1223
42 | N#CC(=Cc1cccc2c1OCCCO2)C(=O)NCc1ccccc1 [9-G05, N-benzyl-2-cyano-3-(3,4-dihydro-2H-1,5-benzodioxepin-6-yl)prop-2-enamide] | 91.5704
43 | CC(Cl)C(=O)NCc1nc(C2CC2)n[nH]1 (centres unmarked) [7-L19, 2-chloro-N-[(3-cyclopropyl-1H-1,2,4-triazol-5-yl)methyl]propanamide] | 80.3568
44 | C=CC(=O)N1CCOCC1c1ccnn1C (centres unmarked) [3-I19, 1-[3-(1-methyl-1H-pyrazol-5-yl)morpholin-4-yl]prop-2-en-1-one] | 94.9127
